Results published in PubChem BioAssay AID485281 (National Center for Advancing Translational Sciences (NCATS), 2010).
In all, about 350,000 compounds went through this assay and about 260 (0.074%) were called active. The inconclusive results got no clear call from the source; some entries with a clear call stand among them for comparison. Calls come from the whole dose curve; as a rule, active = well fitted inhibition curve with a large enough effect; inconclusive = small, poorly fitted or top-dose-only effect; inactive = no such curve, though single readings can be large or run the other way. A potency beside an inconclusive call is a rough fit, not a confirmed value.

Biological target: Ferritin light chain (Equus caballus) (UniProt P02791)
UniProt P02791, sequence (P02791 whole entry, looked up): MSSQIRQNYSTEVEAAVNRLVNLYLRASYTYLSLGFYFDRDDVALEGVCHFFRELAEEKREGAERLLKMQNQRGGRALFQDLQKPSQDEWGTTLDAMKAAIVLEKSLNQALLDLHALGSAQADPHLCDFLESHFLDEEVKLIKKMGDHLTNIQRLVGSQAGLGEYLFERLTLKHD
Assay: qHTS Assay for Identification of Novel General Anesthetics; note: nearly all actives have a fitted effect of over 20% in size
Settings: apoferritin/1-aminoanthracene competitive binding, fluorescence; activity change, negative = displacement: at 77.5 µM (top of the series)
Summary of the method: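 10 uM apoferritin + 50% sat. 1-AMA, PBS; cpd 10 min RT; Ex380/Em535 endpoint; normalized to free probe vs complex; 4-param Hill fit; propofol titration as pos. ctrl.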
% is set by controls: 0 for no effect and ±100 for the full control effect; potency is the fitted concentration of half-maximal effect; tags give direction and shape of the fitted curve.

Row | Structure (SMILES) | Potency | activity change, negative = displacement
1 | CC(C)c1ccc(N2C(=O)NC(=O)/C(=C\C=C\c3ccco3)C2=O)cc1 | inconclusive: 28.2 µM [inhibitor, partial curve] | –
2 | CCCCCCNC(=O)N[C@H](Cc1ccc(O)cc1)C(=O)NCCC[C@H]1CN2C(=NC[C@H]2CCC)N1CC1CCC1 | inconclusive: 10 µM [inhibitor, full curve, poor fit] | –
3 | COC(=O)C(O)(c1ccc(N(C)C(=O)c2cccs2)cc1)C(F)(F)F (stereo not drawn) | inconclusive: 39.8 µM [inhibitor, partial curve] | –
4 | CN1CCN(C(=S)SCC(=O)Nc2ccc(Cl)cc2C(=O)c2ccccc2)CC1 | inconclusive: 44.7 µM [inhibitor, partial curve] | –
5 | CCOC(=O)c1ccc(N2C(=O)CC(N3CC=C(c4ccc(F)cc4)CC3)C2=O)cc1 (stereo not drawn) | – | inactive: -9.3%
6 | CC(C)(C)OC(=O)C(Br)CCBr (stereo not drawn) | – | inactive: -1.45%
7 | CCOC(=O)CSCCOc1ccc(C=C2C(=O)NC(=O)NC2=O)cc1OC | inconclusive: 35.5 µM [inhibitor, single point] | –
8 | O=C(Cn1nc(-c2ccccc2)ccc1=O)N1CCC2(CC1)OCCO2 | inconclusive: 10 µM [inhibitor, partial curve] | –
9 | O=C(c1ccc(Cl)cc1)C1CCCN(Cc2ccc3ncccc3c2)C1 (stereo not drawn) | inconclusive: 50.1 µM [inhibitor, single point] | –
10 | CCOc1ccc(-c2cc(C)[n+](CCN3CCOCC3)c(-c3ccc(OCC)cc3)c2)cc1 | – | inactive: 0.795%
11 | CCCCCC1C(=O)O[C@H](C)[C@@H](NC(=O)c2cccc(NC=O)c2O)C(=O)OC(C)C1OC(=O)CC(C)C (stereo partly drawn) | inconclusive: 35.5 µM [inhibitor, single point] | –
12 | O=[N+]([O-])c1ccc(N2CCNCC2)cc1NC1CC1 | – | inactive: -15.5%
13 | COc1ccc(OCCn2c(NC(=O)c3ccc(OC)cc3)nc3ccccc32)cc1 | – | inactive: 51.4%
14 | CC[C@@H]1/C=C/C=C/C[C@H](C)[C@@H](O)[C@](C)(O)C(=O)[C@H](C)[C@@H](O)[C@H](C)C(=O)[C@H](C)[C@@H](O)[C@H](C)/C=C/C(=O)O[C@H]2[C@@H](C)[C@@H](CC1)O[C@@]1(CC[C@@H](C)[C@@H](C[C@H](C)O)O1)[C@@H]2C | – | inactive: -8.1%
15 | CC(C)OP(=O)(OC(C)C)C(Nc1ccc([N+](=O)[O-])cc1)c1cccc([N+](=O)[O-])c1 (stereo not drawn) | inconclusive: 25.1 µM [inhibitor, partial curve] | –
16 | Cc1ccc(C)c(S(=O)(=O)c2nnn3c2nc(N2CCN(C)CC2)c2sccc23)c1 | inconclusive: 2.82 µM [inhibitor, partial curve] | –
17 | NC(=O)c1cccc(-c2cccc(OC(=O)NC3CCCCC3)c2)c1 | inconclusive: 7.08 µM [inhibitor, partial curve] | –
18 | CC1OC(=O)C(C(C)C)NC(=O)C(C(C)C)OC(=O)C(C(C)C)NC(=O)C(C)OC(=O)C(C(C)C)NC(=O)C(C(C)C)OC(=O)C(C(C)C)NC(=O)C(C)OC(=O)C(C(C)C)NC(=O)C(C(C)C)OC(=O)C(C(C)C)NC1=O (stereo not drawn) | inconclusive: 12.6 µM [inhibitor, single point] | –
19 | CN(C)P(=S)(Nc1ccccc1)C(Cl)(Cl)Cl (stereo not drawn) | inconclusive: 12.6 µM [inhibitor, partial curve] | –
20 | CC(C)C[C@H](NC(=O)[C@H](CC(C)C)NC(=O)[C@H](Cc1ccccc1)NC(=O)[C@@H](N)Cc1ccc(O)cc1)C(=O)N[C@@H](CCCN=C(N)N)C(=O)N[C@@H](CC(N)=O)C(=O)N1CCC[C@H]1C(=O)O | – | inactive: 5.23%
21 | Cc1[nH]c2ccc(OCc3ccccc3)cc2c1CCN | inconclusive: 31.6 µM [inhibitor, single point] | –
22 | O=C(c1ccc2c(c1)OCO2)C1CCCN(Cc2ccc(F)c(F)c2)C1 (stereo not drawn) | inconclusive: 35.5 µM [inhibitor, partial curve] | –
23 | Cc1cc(/C=C2\C(=O)NC(=O)N(c3cccc(F)c3)C2=O)c(C)n1-c1ccc(C(=O)O)c(Cl)c1 | – | inactive: 6.76%
24 | Fc1ccc(NC2=NCCS2)cc1Cl | inconclusive: 28.2 µM [inhibitor, partial curve] | –
25 | CCCC1COC(Cn2cncn2)(c2ccc(Cl)cc2Cl)O1 (stereo not drawn) | inconclusive: 31.6 µM [inhibitor, single point] | –
26 | CC1(C)CN=C(Nc2ccc(F)c(F)c2)S1 | inconclusive: 25.1 µM [inhibitor, partial curve] | –
27 | CC1(C)C(C(=O)NCc2ccco2)C1(C)C | inconclusive: 31.6 µM [inhibitor, partial curve] | –
28 | O=C(c1ccco1)c1cn(Cc2ccccc2Cl)c2ccccc12 | inconclusive: 39.8 µM [inhibitor, partial curve] | –
